Assay results published in a collection of fitness landscapes (doi:10.1016/j.celrep.2020.107928).
The full ranking holds about 81,000 sequences; the median of “one-hybrid fitness for binding NBS DNA” is about -0.1, and the highest 2% start at about 0.36. The list shows a part of the results.

B1: Caulobacter ParB omega fusion; a variant is named by its letters at X, in order, B8GW30 (parent)
chain: MESVVVGEPGMSEGRRGLGRGLSALLGEVDAAPAQAPGEQLGGSREAPIEILQRNPDQPRRTFREEDLEDLSNSIREKGVLQPILVRPSPDTAGEYQIVAGERAWRAAQRAGLKTVPIMVRELDDLAVLEIGIIENVQRADLNVLEEALSYKVLMEKFERTQENIAQTIGKSXSHVANXMRLLXLPDEVQSYLVSGELTAXHARAIAAAADPVALAKQIIEGGLSVRETEALARKAPNLSAGKSKGGRPPRVKDTDTQALESDLSSVLGLDVSIDHRGSTGTLTITYATLEQLDDLCNRLTRGI

Variants of: B1
Assay: one-hybrid fitness for binding NBS DNA (the Noc-binding site; scaled: cognate 1, non-cognate 0); higher = stronger binding
Conditions: with NBS DNA site
How it was run: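 Bacterial one-hybrid selection in E. coli USO rpoZ- hisB- pyrF- with a HIS3 reporter carrying the site 19 bp from the promoter, screening Caulobacter ParB libraries with four specificity codons randomised (NNS). Cells grew 48 hours at 37°C on M9-minus-histidine plus 0.1 mM IPTG and 5 mM 3-AT. Plasmids before and after selection were Illumina-sequenced, three replicate libraries pooled, and variants under 10 reads dropped. Fitness is the log change in variant-to-wild-type read ratio, rescaled to cognate 1, non-cognate 0.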

YYRV and SRTD cannot be ordered by “one-hybrid fitness for binding NBS DNA” value: no more than 0.2 for the first, no more than 0.2 for the second.

Compared with KKPT, QQRS is higher in “one-hybrid fitness for binding NBS DNA” value: no more than 0.2 for the first, 0.714 for the second.

Going from PIFL to KRRM, the “one-hybrid fitness for binding NBS DNA” value rises from no more than 0.2 to 0.248.

SKDC and RLHK cannot be ordered by “one-hybrid fitness for binding NBS DNA” value: no more than 0.2 for the first, no more than 0.2 for the second.

YVHR and GGNT cannot be ordered by “one-hybrid fitness for binding NBS DNA” value: no more than 0.2 for the first, no more than 0.2 for the second.

CTEL and QYDA cannot be ordered by “one-hybrid fitness for binding NBS DNA” value: no more than 0.2 for the first, no more than 0.2 for the second.

PNPE and KEPC cannot be ordered by “one-hybrid fitness for binding NBS DNA” value: no more than 0.2 for the first, no more than 0.2 for the second.

TSTT and NSWS cannot be ordered by “one-hybrid fitness for binding NBS DNA” value: no more than 0.2 for the first, no more than 0.2 for the second.

KTNN and GKKS cannot be ordered by “one-hybrid fitness for binding NBS DNA” value: no more than 0.2 for the first, no more than 0.2 for the second.

CFNC and HSTE cannot be ordered by “one-hybrid fitness for binding NBS DNA” value: no more than 0.2 for the first, no more than 0.2 for the second.

PLMG and SMKC cannot be ordered by “one-hybrid fitness for binding NBS DNA” value: no more than 0.2 for the first, no more than 0.2 for the second.

RWKE and PLAK cannot be ordered by “one-hybrid fitness for binding NBS DNA” value: no more than 0.2 for the first, no more than 0.2 for the second.

PVFM and LVSR cannot be ordered by “one-hybrid fitness for binding NBS DNA” value: no more than 0.2 for the first, no more than 0.2 for the second.

HMDL and RLGP cannot be ordered by “one-hybrid fitness for binding NBS DNA” value: no more than 0.2 for the first, no more than 0.2 for the second.

RMIN and AQDA cannot be ordered by “one-hybrid fitness for binding NBS DNA” value: no more than 0.2 for the first, no more than 0.2 for the second.

TIPT and NYRR cannot be ordered by “one-hybrid fitness for binding NBS DNA” value: no more than 0.2 for the first, no more than 0.2 for the second.

IIIR and PGHS cannot be ordered by “one-hybrid fitness for binding NBS DNA” value: no more than 0.2 for the first, no more than 0.2 for the second.

HLFC and NHNF cannot be ordered by “one-hybrid fitness for binding NBS DNA” value: no more than 0.2 for the first, no more than 0.2 for the second.

YLNK and RGSS cannot be ordered by “one-hybrid fitness for binding NBS DNA” value: no more than 0.2 for the first, no more than 0.2 for the second.

MKVM and GYCL cannot be ordered by “one-hybrid fitness for binding NBS DNA” value: no more than 0.2 for the first, no more than 0.2 for the second.

AQRA and QMQH cannot be ordered by “one-hybrid fitness for binding NBS DNA” value: no more than 0.2 for the first, no more than 0.2 for the second.

NGVK and PKFV cannot be ordered by “one-hybrid fitness for binding NBS DNA” value: no more than 0.2 for the first, no more than 0.2 for the second.

ICAV and MYQR cannot be ordered by “one-hybrid fitness for binding NBS DNA” value: no more than 0.2 for the first, no more than 0.2 for the second.

First: RNHC
Second: QKAR
The “one-hybrid fitness for binding NBS DNA” value of the first is lower: no more than 0.2 for the first, 0.606 for the second.

MANY and QAWH cannot be ordered by “one-hybrid fitness for binding NBS DNA” value: no more than 0.2 for the first, no more than 0.2 for the second.

YPSM and MRDR cannot be ordered by “one-hybrid fitness for binding NBS DNA” value: no more than 0.2 for the first, no more than 0.2 for the second.

RNGK and KNLN cannot be ordered by “one-hybrid fitness for binding NBS DNA” value: no more than 0.2 for the first, no more than 0.2 for the second.

VNIM and GARH cannot be ordered by “one-hybrid fitness for binding NBS DNA” value: no more than 0.2 for the first, no more than 0.2 for the second.

Compared with DRRM, RSRH is higher in “one-hybrid fitness for binding NBS DNA” value: no more than 0.2 for the first, 0.335 for the second.

DVAL and LSVP cannot be ordered by “one-hybrid fitness for binding NBS DNA” value: no more than 0.2 for the first, no more than 0.2 for the second.

QPGN and CHNI cannot be ordered by “one-hybrid fitness for binding NBS DNA” value: no more than 0.2 for the first, no more than 0.2 for the second.

CTRA and RFQF cannot be ordered by “one-hybrid fitness for binding NBS DNA” value: no more than 0.2 for the first, no more than 0.2 for the second.

QPGI and RGHP cannot be ordered by “one-hybrid fitness for binding NBS DNA” value: no more than 0.2 for the first, no more than 0.2 for the second.

KITS and SSSC cannot be ordered by “one-hybrid fitness for binding NBS DNA” value: no more than 0.2 for the first, no more than 0.2 for the second.

EQFV and TVDL cannot be ordered by “one-hybrid fitness for binding NBS DNA” value: no more than 0.2 for the first, no more than 0.2 for the second.

CRLE and LTMA cannot be ordered by “one-hybrid fitness for binding NBS DNA” value: no more than 0.2 for the first, no more than 0.2 for the second.

RMYL and THKG cannot be ordered by “one-hybrid fitness for binding NBS DNA” value: no more than 0.2 for the first, no more than 0.2 for the second.

YTPT and HPDG cannot be ordered by “one-hybrid fitness for binding NBS DNA” value: no more than 0.2 for the first, no more than 0.2 for the second.

Compared with QCFP, QPKT is higher in “one-hybrid fitness for binding NBS DNA” value: no more than 0.2 for the first, 0.201 for the second.

TGKL and HKKF cannot be ordered by “one-hybrid fitness for binding NBS DNA” value: no more than 0.2 for the first, no more than 0.2 for the second.

PIIR and QMVI cannot be ordered by “one-hybrid fitness for binding NBS DNA” value: no more than 0.2 for the first, no more than 0.2 for the second.

PRTH and HKKG cannot be ordered by “one-hybrid fitness for binding NBS DNA” value: no more than 0.2 for the first, no more than 0.2 for the second.

LPRP and YKNY cannot be ordered by “one-hybrid fitness for binding NBS DNA” value: no more than 0.2 for the first, no more than 0.2 for the second.

TVTN and QMGM cannot be ordered by “one-hybrid fitness for binding NBS DNA” value: no more than 0.2 for the first, no more than 0.2 for the second.

ADSA and QYDF cannot be ordered by “one-hybrid fitness for binding NBS DNA” value: no more than 0.2 for the first, no more than 0.2 for the second.

VKQG and GRLG cannot be ordered by “one-hybrid fitness for binding NBS DNA” value: no more than 0.2 for the first, no more than 0.2 for the second.

RRWL and RWNP cannot be ordered by “one-hybrid fitness for binding NBS DNA” value: no more than 0.2 for the first, no more than 0.2 for the second.

GRSS and PPLC cannot be ordered by “one-hybrid fitness for binding NBS DNA” value: no more than 0.2 for the first, no more than 0.2 for the second.

ASYM and YSTF cannot be ordered by “one-hybrid fitness for binding NBS DNA” value: no more than 0.2 for the first, no more than 0.2 for the second.

KILW and LDPR cannot be ordered by “one-hybrid fitness for binding NBS DNA” value: no more than 0.2 for the first, no more than 0.2 for the second.

Going from RYLT to TFTK, the “one-hybrid fitness for binding NBS DNA” value falls from 0.366 to no more than 0.2.

Going from RINR to VTTF, the “one-hybrid fitness for binding NBS DNA” value falls from 0.524 to no more than 0.2.

Going from VIMF to RTKY, the “one-hybrid fitness for binding NBS DNA” value rises from no more than 0.2 to 0.418.

GIQI and WHNR cannot be ordered by “one-hybrid fitness for binding NBS DNA” value: no more than 0.2 for the first, no more than 0.2 for the second.

HHVS and TNFD cannot be ordered by “one-hybrid fitness for binding NBS DNA” value: no more than 0.2 for the first, no more than 0.2 for the second.

GLEK and LMKT cannot be ordered by “one-hybrid fitness for binding NBS DNA” value: no more than 0.2 for the first, no more than 0.2 for the second.

CHYT and CFLV cannot be ordered by “one-hybrid fitness for binding NBS DNA” value: no more than 0.2 for the first, no more than 0.2 for the second.

PQDN and SNIG cannot be ordered by “one-hybrid fitness for binding NBS DNA” value: no more than 0.2 for the first, no more than 0.2 for the second.

FFLR and THCS cannot be ordered by “one-hybrid fitness for binding NBS DNA” value: no more than 0.2 for the first, no more than 0.2 for the second.

SVES and TENV cannot be ordered by “one-hybrid fitness for binding NBS DNA” value: no more than 0.2 for the first, no more than 0.2 for the second.

KVNP and YTAT cannot be ordered by “one-hybrid fitness for binding NBS DNA” value: no more than 0.2 for the first, no more than 0.2 for the second.

DATF and KPII cannot be ordered by “one-hybrid fitness for binding NBS DNA” value: no more than 0.2 for the first, no more than 0.2 for the second.

ARIM and YPAT cannot be ordered by “one-hybrid fitness for binding NBS DNA” value: no more than 0.2 for the first, no more than 0.2 for the second.

PYFA and IDTR cannot be ordered by “one-hybrid fitness for binding NBS DNA” value: no more than 0.2 for the first, no more than 0.2 for the second.

RSVK and GTQM cannot be ordered by “one-hybrid fitness for binding NBS DNA” value: no more than 0.2 for the first, no more than 0.2 for the second.

LLEC and EYKA cannot be ordered by “one-hybrid fitness for binding NBS DNA” value: no more than 0.2 for the first, no more than 0.2 for the second.

HHTS and PCAY cannot be ordered by “one-hybrid fitness for binding NBS DNA” value: no more than 0.2 for the first, no more than 0.2 for the second.

TEKA and RLPY cannot be ordered by “one-hybrid fitness for binding NBS DNA” value: no more than 0.2 for the first, no more than 0.2 for the second.

VFCS and RVYP cannot be ordered by “one-hybrid fitness for binding NBS DNA” value: no more than 0.2 for the first, no more than 0.2 for the second.

NCIW and YSFG cannot be ordered by “one-hybrid fitness for binding NBS DNA” value: no more than 0.2 for the first, no more than 0.2 for the second.

AETK and SILN cannot be ordered by “one-hybrid fitness for binding NBS DNA” value: no more than 0.2 for the first, no more than 0.2 for the second.

WDNM and MGVE cannot be ordered by “one-hybrid fitness for binding NBS DNA” value: no more than 0.2 for the first, no more than 0.2 for the second.

HLEV and YIPA cannot be ordered by “one-hybrid fitness for binding NBS DNA” value: no more than 0.2 for the first, no more than 0.2 for the second.

FVFG and KSMC cannot be ordered by “one-hybrid fitness for binding NBS DNA” value: no more than 0.2 for the first, no more than 0.2 for the second.

VPCG and FTSY cannot be ordered by “one-hybrid fitness for binding NBS DNA” value: no more than 0.2 for the first, no more than 0.2 for the second.

GCPI and PRNV cannot be ordered by “one-hybrid fitness for binding NBS DNA” value: no more than 0.2 for the first, no more than 0.2 for the second.

In the case of AHES, the “one-hybrid fitness for binding NBS DNA” value is reported as no more than 0.2.
